Measured values published in PubChem BioAssay AID485281 (National Center for Advancing Translational Sciences (NCATS), 2010).
The whole screen tested about 350,000 compounds, of which about 260 (0.074%) were called active. Inconclusive results, whose numbers are uncertain, are shown with a selection of clear calls. Calls follow the shape of the dose curve; as a rule, active = well fitted inhibition curve with a large enough effect; inconclusive = small, poorly fitted or top-dose-only effect; inactive = no such curve, though single readings can be large or run the other way. A potency beside an inconclusive call is a rough fit, not a confirmed value.

Biological target: Ferritin light chain (Equus caballus) (UniProt P02791)
Assay: qHTS Assay for Identification of Novel General Anesthetics; also: nearly all actives have a fitted effect of over 20% in size
Conditions: apoferritin/1-aminoanthracene competitive binding, fluorescence; activity change, negative = displacement: at 77.5 µM (top of the series)
Method in brief: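 Apoferritin-based anesthetic binding model; compound displacement of fluorescent 1-AMA measured as endpoint fluorescence after 10 minutes at room temperature, scaled to free-ligand and complex controls.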
% is scaled to controls: 0 for no effect and ±100 for the full control effect; potency is read from the fitted curve at half-maximal effect; tags tell the direction and shape of the fitted curve.

Chain of UniProt P02791 (P02791 whole entry, looked up): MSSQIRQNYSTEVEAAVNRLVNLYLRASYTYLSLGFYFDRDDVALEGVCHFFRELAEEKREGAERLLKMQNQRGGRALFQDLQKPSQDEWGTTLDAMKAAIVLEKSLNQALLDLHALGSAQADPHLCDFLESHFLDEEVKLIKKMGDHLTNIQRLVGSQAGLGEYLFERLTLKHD

Row | Structure (SMILES) | Potency | activity change, negative = displacement
1 | CCC1(c2ccc(F)cc2)NC(=O)N(CC(=O)Nc2ccc(C)c(S(=O)(=O)N3CCOCC3)c2)C1=O (stereo not given) | inconclusive: 35.5 µM [inhibitor, single point] | –
2 | CC[n+]1c(/C=C2\C=C(C)CC(C)(C)C2)sc2ccccc21 | inconclusive: 35.5 µM [inhibitor, partial curve] | –
3 | O=S(=O)(NCCc1ccc(F)cc1)c1cccc2cccnc12 | inconclusive: 31.6 µM [inhibitor, single point] | –
4 | CCc1nc2c(sc3nc4c(cc32)COC(C)(C)C4)c(=O)n1Cc1ccco1 | inconclusive: 7.08 µM [inhibitor, partial curve] | –
5 | CCOC(=O)/C(=N/Nc1ccccc1)c1csc(Nc2ccccc2)n1 | inconclusive: 11.2 µM [inhibitor, partial curve] | –
6 | Cc1cn(-c2ccccc2)c(C)c1/C=N\Nc1nc(N2CCOCC2)nc(N2CCOCC2)n1 | inconclusive: 39.8 µM [inhibitor, partial curve] | –
7 | COc1ccc(NC2CCCN(C(=O)c3ccc4[nH]c(C)c(C)c4c3)C2)cc1OC (stereo not given) | inconclusive: 28.2 µM [inhibitor, single point] | –
8 | COc1ccc(Oc2ccc3c(C(F)(F)F)cc(C(F)(F)F)nc3n2)cc1 | inconclusive: 5.62 µM [inhibitor, partial curve] | –
9 | CC(C)Oc1ccc(CNC(=O)c2cnc3sc(N4CCCCC4)nn3c2=O)cc1 | inconclusive: 1.78 µM [inhibitor, full curve] | –
10 | CC(=O)c1ccc(N2CCN(C3CCC(C(C)(C)C)CC3)CC2)cc1 (stereo not given) | inconclusive: 31.6 µM [inhibitor, partial curve] | –
11 | Cc1cc(C)cc(OCC(=O)Nc2ccc(Cl)c(-c3nc4ncccc4o3)c2)c1 | inconclusive: 14.1 µM [inhibitor, partial curve] | –
12 | COc1cc(CNc2ncn[nH]2)ccc1OCc1cccc(C)c1 | inconclusive: 28.2 µM [inhibitor, partial curve] | –
13 | CC1(C)CC(=O)C/C(=N\NC(=O)C2CC23CCC3)C1 (stereo not given) | – | inactive: -9.66%
14 | Cc1ccc(-c2cc(C(=O)NC3=NCCS3)c3ccccc3n2)cc1C | inconclusive: 15.8 µM [inhibitor, partial curve, poor fit] | –
15 | CCOC(=O)C1=C(C)N=c2s/c(=C\c3ccc(OCC(=O)O)cc3)c(=O)n2C1c1ccccc1 (stereo not given) | inconclusive: 22.4 µM [inhibitor, partial curve] | –
16 | N#CCCSc1ncnc2c1oc1ccccc12 | inconclusive: 44.7 µM [inhibitor, partial curve] | –
17 | Cc1ccc(NC(=O)CSc2nc3c(oc4ccccc43)c(=O)n2Cc2ccco2)cc1 | – | inactive: 3.63%
18 | NC(=O)CC(NC(=O)c1ccccc1)c1ccc(NCc2ccccc2)c([N+](=O)[O-])c1 (stereo not given) | inconclusive: 50.1 µM [inhibitor, single point] | –
19 | CCN(CC1CCCO1)C(=O)c1cc(COc2cc(C)c(Cl)c(C)c2)on1 (stereo not given) | inconclusive: 22.4 µM [inhibitor, partial curve] | –
20 | CCC(/C=C1\Sc2ccc(OC)cc2N1CCO)=C\c1sc2ccc(OC)cc2[n+]1CCO | inconclusive: 28.2 µM [inhibitor, partial curve] | –
21 | CCCNC(=O)OCC12CC3CC(CC(C3)C1)C2 | inconclusive: 12.6 µM [inhibitor, partial curve] | –
22 | CCN(c1ccccc1)S(=O)(=O)c1ccc(F)c(C(=O)Nc2ccc(C)cc2)c1 | inconclusive: 7.08 µM [inhibitor, partial curve] | –

Row | Structure (SMILES) | Potency | activity change, negative = displacement
23 | CCCCC/C=C\C/C=C\CCCCCCCC(N)=O | – | inactive: -0.668%
24 | CC1=C(C(=O)OCC2CCCCC2)C(c2ccc(F)cc2)NC(=O)N1 (stereo not given) | inconclusive: 35.5 µM [inhibitor, single point] | –
25 | CCCNC(=O)CC(NS(=O)(=O)c1ccc(NC(C)=O)cc1)C(C)C (stereo not given) | – | inactive: -4.05%
26 | O=C1OC2(c3cc(I)c(O)c(I)c3Oc3c2cc(I)c(O)c3I)c2c(Cl)c(Cl)c(Cl)c(Cl)c21 | inconclusive: 31.6 µM [inhibitor, partial curve] | –
27 | Cc1ccc(SCc2ccc(C(=O)N3CCCCC3)cc2)cc1 | inconclusive: 22.4 µM [inhibitor, partial curve] | –
28 | c1ccc2c(c1)ncn2CCCOc1ccc2c(c1)CCC2 | inconclusive: 44.7 µM [inhibitor, partial curve] | –
29 | Cc1cc(Cl)ccc1OCC(=O)OC(C)C(=O)NC(N)=O (stereo not given) | inconclusive: 25.1 µM [inhibitor, partial curve] | –
30 | CCN(CC)C(=O)c1ccc(C)c(Br)c1 | inconclusive: 35.5 µM [inhibitor, single point] | –
31 | COc1ccccc1NC(=O)N1CCN(c2ccnc3cc(Cl)ccc23)CC1 | – | inactive: -1.47%
32 | COc1ccc(-c2coc3cc(OC4OC(CO)C(O)C(O)C4O)ccc3c2=O)cc1 (stereo not given) | – | inactive: -5.37%
33 | Cc1cc(NC(=O)CCOc2ccccc2)no1 | inconclusive: 35.5 µM [inhibitor, partial curve] | –
34 | Cn1cccc1/C=C1\CCc2ccccc2C1=O | inconclusive: 28.2 µM [inhibitor, partial curve] | –
35 | CCc1ccc(-n2nc(C)c3c(C(=O)NCCc4ccc(OC)c(OC)c4)cc(C)nc32)cc1 | – | inactive: -9.48%
36 | COCCC1CCCCN1C(=O)c1cc(COc2cccc(C(C)=O)c2)on1 (stereo not given) | inconclusive: 25.1 µM [inhibitor, single point] | –
37 | O=C1/C(=C\c2cccc(O)c2O)SC(=S)N1Cc1ccccc1 | inconclusive: 10 µM [inhibitor, partial curve] | –
38 | COc1ccc(S(=O)(=O)N/N=c2\oc3c(OC)cccc3cc2S(=O)(=O)c2ccc(C)cc2)cc1OC | inconclusive: 14.1 µM [inhibitor, partial curve] | –
39 | CCOC(=O)c1cc(C(=O)OCC)cc(-n2c(C)cc(C(=O)CN3CCOCC3)c2C)c1 | inconclusive: 50.1 µM [inhibitor, single point] | –
40 | CC1CCN(c2nnc(-c3ccccc3)c3ccccc23)CC1 | inconclusive: 14.1 µM [inhibitor, partial curve] | –
41 | Cc1cccc(Oc2ccc(Cl)cc2N)c1 | inconclusive: 28.2 µM [inhibitor, partial curve] | –
42 | O=C(Cn1c(CC(=O)N2CCOCC2)nc2ccccc21)Nc1ccc2c(c1)OC(F)(F)O2 | inconclusive: 25.1 µM [inhibitor, partial curve] | –
43 | NS(=O)(=O)c1ccc(N/N=C2/CCCCC2C2CCCCC2)c([N+](=O)[O-])c1 (stereo not given) | inconclusive: 39.8 µM [inhibitor, single point] | –
44 | CCOc1ccc(OCCC(=O)OCC(=O)NC2CCCCC2)cc1 | inconclusive: 11.2 µM [inhibitor, partial curve] | –

Row | Structure (SMILES) | Potency | activity change, negative = displacement
45 | CCCCn1cnc2c(oc3nc4c(cc32)CCCC4)c1=O | – | inactive: -4.83%
46 | CN1CCN(c2ccc(NC(=O)COc3cccc4ccccc34)cc2)CC1 | – | inactive: -21.4%
47 | Cc1ccc(-n2c(CNc3ccc(C)c(Cl)c3)n[nH]c2=S)cc1 | inconclusive: 35.5 µM [inhibitor, partial curve] | –
48 | O=C(COc1ccccc1Cl)Nc1cnn(Cc2ccccc2)c1 | inconclusive: 35.5 µM [inhibitor, partial curve] | –
49 | O=C(NCc1cccs1)C1CCN(C(=O)N2CCOc3ccccc32)CC1 | – | inactive: -4.26%
50 | C/C=C/c1ccc(OCCCNC)c(OC)c1 | – | inactive: -18.7%
51 | CC1CC(C)CN(C(=O)c2nn(C)c3c2CSc2ccccc2-3)C1 (stereo not given) | inconclusive: 28.2 µM [inhibitor, partial curve] | –
52 | COc1cc(-c2nnc(SCC(=O)OC3CCCCC3)o2)cc(OC)c1OC | inconclusive: 25.1 µM [inhibitor, partial curve] | –
53 | O=C(NCc1ccc2c(c1)OCO2)C1CCCN(S(=O)(=O)c2cccnc2)C1 (stereo not given) | – | inactive: -5.32%
54 | Cc1nc(NC(C)c2ccccc2)sc1C(=O)Nc1ccccc1 (stereo not given) | inconclusive: 28.2 µM [inhibitor, partial curve] | –
55 | CCN(CC)C(=O)c1ccc(COc2ccc(Cl)c(C)c2)o1 | inconclusive: 35.5 µM [inhibitor, single point] | –
56 | COc1ccc(-n2c(SCc3nnc(-c4ccccc4)o3)nnc2-c2ccccc2)cc1 | inconclusive: 15.8 µM [inhibitor, partial curve] | –
57 | C/C(=N\NC(=O)CSc1nc2ccccc2[nH]1)c1ccncc1 | inconclusive: 25.1 µM [inhibitor, single point] | –
58 | COc1ccc(CN(C(=S)Nc2ccccc2)C2CC(=O)N(c3ccc(F)cc3)C2=O)cc1 (stereo not given) | inconclusive: 1.78 µM [inhibitor, full curve] | –
59 | CN(C)S(=O)(=O)c1ccc(NC(=O)CSc2ncnc3ccccc23)cc1 | inconclusive: 20 µM [inhibitor, partial curve] | –
60 | CCN(CC)C(=O)c1c2c(nc3ccccc13)-c1ccccc1CC2 | – | inactive: 3.11%
61 | Oc1ccccc1N1CCN(c2ncnc3sc(-c4ccccc4)cc23)CC1 | inconclusive: 39.8 µM [inhibitor, partial curve] | –
62 | CCCC(=O)O[C@]1(C(=O)CCl)[C@@H](C)C[C@H]2[C@@H]3CCC4=CC(=O)C=C[C@]4(C)[C@@]3(F)C(=O)C[C@@]21C | inconclusive: 35.5 µM [inhibitor, partial curve] | –
63 | CCc1cccc(C)c1N=Cc1c(O)c2ccccc2oc1=O | inconclusive: 35.5 µM [inhibitor, partial curve] | –
64 | O=C(CCc1ccccc1)NCC(=O)N/N=C/c1ccc2c(c1)OCO2 | inconclusive: 20 µM [inhibitor, partial curve] | –
65 | CCCc1cc(=O)oc2cc(C)cc(OCC(=O)Nc3ccc(CN4CCOCC4)cc3)c12 | inconclusive: 35.5 µM [inhibitor, partial curve] | –
